The results in this text go back to article PMC4336329 (PLoS ONE, 2015).

In all, about 310,000 compounds went through this assay and about 14,000 (4.5%) showed an effect of 50% or more. The effect is printed as a negative number. This is one part of the list.
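Note: peak tail current of the secondary pulse compared with the same well before compound.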

Chain of human ether-à-go-go-related gene (hERG) potassium channel (Q12809 whole entry, looked up): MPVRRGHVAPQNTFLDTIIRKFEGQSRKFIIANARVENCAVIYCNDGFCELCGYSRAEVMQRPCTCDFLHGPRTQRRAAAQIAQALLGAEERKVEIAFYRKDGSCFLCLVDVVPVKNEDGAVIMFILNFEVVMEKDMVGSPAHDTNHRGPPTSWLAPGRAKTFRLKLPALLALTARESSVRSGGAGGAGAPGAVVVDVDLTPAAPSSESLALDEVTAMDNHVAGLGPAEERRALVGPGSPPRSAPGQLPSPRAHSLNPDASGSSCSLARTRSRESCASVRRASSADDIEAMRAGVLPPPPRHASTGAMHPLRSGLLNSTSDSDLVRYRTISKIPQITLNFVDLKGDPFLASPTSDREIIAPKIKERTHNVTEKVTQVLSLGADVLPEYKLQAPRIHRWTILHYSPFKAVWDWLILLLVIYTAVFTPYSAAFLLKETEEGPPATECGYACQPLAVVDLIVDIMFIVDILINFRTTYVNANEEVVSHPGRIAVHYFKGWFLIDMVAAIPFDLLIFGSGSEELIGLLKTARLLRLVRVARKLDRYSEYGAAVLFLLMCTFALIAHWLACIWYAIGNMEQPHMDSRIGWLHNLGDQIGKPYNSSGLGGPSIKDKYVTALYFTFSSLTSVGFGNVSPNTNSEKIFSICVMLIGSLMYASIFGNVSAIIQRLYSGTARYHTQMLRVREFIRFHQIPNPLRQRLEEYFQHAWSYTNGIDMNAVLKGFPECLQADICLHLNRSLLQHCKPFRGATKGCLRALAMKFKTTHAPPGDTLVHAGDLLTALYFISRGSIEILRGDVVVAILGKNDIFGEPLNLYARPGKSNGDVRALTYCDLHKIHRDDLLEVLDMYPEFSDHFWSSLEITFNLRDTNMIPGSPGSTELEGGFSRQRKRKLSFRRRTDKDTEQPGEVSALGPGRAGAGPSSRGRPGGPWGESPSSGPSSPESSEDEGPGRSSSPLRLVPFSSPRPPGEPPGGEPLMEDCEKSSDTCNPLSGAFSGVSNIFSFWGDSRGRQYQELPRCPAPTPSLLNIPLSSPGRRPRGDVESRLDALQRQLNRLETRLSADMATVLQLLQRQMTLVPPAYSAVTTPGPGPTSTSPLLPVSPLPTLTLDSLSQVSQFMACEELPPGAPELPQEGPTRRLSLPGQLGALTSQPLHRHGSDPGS

This test concerns the target human ether-à-go-go-related gene (hERG) potassium channel (human, UniProt Q12809). Nature of the test: primary screen, population patch clamp on CHO cells stably expressing hERG.
On to `CCCCNS(=O)(=O)c1ccc(NC(=O)Cc2ccccc2[N+](=O)[O-])cc1`, for which the “hERG current change (%, negative = inhibition) at 10uM” value is 2.97%.

On to `Cc1cc(NC(=O)CSc2nc(=O)cc(N)n2-c2ccc(C)c(C)c2)no1`, for which the “hERG current change (%, negative = inhibition) at 10uM” value worked out at 8.97%. The result for `CCC1CCCCN1CCNS(=O)(=O)c1ccc2c(c1)CCN2C(C)=O` (centres unmarked) reads -1.09%; that for `O=C(CNS(=O)(=O)c1ccc(Cl)cc1)N/N=C/c1ccco1`, 10.5%; that for `NS(=O)(=O)c1ccc(CCNc2nc(C(F)(F)F)nc3ccccc23)cc1`, 26%. The result for `CCn1c(=S)[nH]c2cc(C(=O)OC)ccc2c1=O` reads 19.6%. On to `CCC1(C)Cc2[nH]c(=O)c(C#N)cc2CO1` (centres unmarked), for which the “hERG current change (%, negative = inhibition) at 10uM” value is 12.7%.

As to `O=C(Nc1ccccc1[N+](=O)[O-])c1cc(S(=O)(=O)Nc2ccccn2)ccc1Cl`, the “hERG current change (%, negative = inhibition) at 10uM” value was determined as 14.7%.

Turning to `Cc1nc(N)nc(Cl)c1Cc1ccc(Cl)cc1`, the “hERG current change (%, negative = inhibition) at 10uM” value was found to be 16.1%. The result for `CC(NC(=O)Cn1cccc1C(=O)c1ccccc1)c1ccccc1` (centres unmarked) reads 17.8%; that for `Cc1ccc(CS(=O)Cc2ccc(C(=O)NCCc3ccccc3)o2)cc1` (centres unmarked), -7.62%. Then `Cc1ccc(C(=O)Nc2nnc(S(=O)(=O)N3CCN(c4ccc(F)cc4)CC3)s2)cc1`, with 2.59%; and `COC(=O)c1c(NC(=O)c2cccc(S(=O)(=O)N3CCN(C)CC3)c2)sc(C)c1C`, with 13.4%; and `CC(=O)N/C(=C\c1ccccc1)C(=O)OCCCOC(=O)/C(=C/c1ccccc1)NC(C)=O`, with 2.78%. The result for `C/C(=N\O)c1ccc2c3ccccc3n(C)c2c1` reads 25.3%; that for `O=C(CSc1ccccc1Cl)c1ccco1`, -7.76%; that for `Cc1cc(=O)[nH]c(SCC(=O)Nc2ccc(C)c(S(=O)(=O)N3CCCCC3)c2)n1`, -4.5%. Consider `Cc1cc(NC(=O)CCC(=O)N(CC2CCCO2)C(C(=O)NC2CCCC2)c2ccccc2C)no1` (centres unmarked), for which the “hERG current change (%, negative = inhibition) at 10uM” value worked out at 3.34%.

As to `Cc1csc2c(SCC(=O)NNS(=O)(=O)c3cccc(C(F)(F)F)c3)ncnc12`, the “hERG current change (%, negative = inhibition) at 10uM” value is 21.7%. Then `O=C(COc1ncnc2ccccc12)c1ccc(Cl)cc1`, with 26%; and `Cl.NCCCC[C@H](N)c1nnc([C@H](CCC(=O)O)NC(=O)C2CCNCC2)o1`, with 11.6%. The result for `C/C=C/C(=O)OCC(=O)Nc1cc(OC)c([N+](=O)[O-])cc1C` reads -17.6%. The result for `CCOC(=O)c1cnc2c(-c3ccccc3)cnn2c1C` reads 6.71%; that for `CC(NCC1COc2ccccc2O1)C1COc2ccccc2O1` (centres unmarked), 3.1%; that for `COc1ccc(C(=O)C2CCCN(C(=O)c3ccoc3C)C2)cc1F` (centres unmarked), -6.04%.

On to `CC1CC(C)(C)NC(=S)N1CCCC(=O)Nc1ccc(Cl)cc1` (centres unmarked), for which the “hERG current change (%, negative = inhibition) at 10uM” value was -13.6%. Regarding `CCOc1cc(N2CCOCC2)c(OCC)cc1NS(=O)(=O)c1ccc(Cl)s1`, the “hERG current change (%, negative = inhibition) at 10uM” value is on record as -0.532%. Then `O=C1C2CC=CCC2C(=O)N1c1ncn[nH]1` (centres unmarked), with 13.6%; and `O=c1cc(CSc2nnc(-c3ccccc3)o2)c2ccccc2[nH]1`, with 11.9%. In the case of `COc1ccc(SCC(=O)c2cc(C)c(OC(=S)N(C)C)c(C)c2)cc1`, the “hERG current change (%, negative = inhibition) at 10uM” value is on record as 12.7%. Then `COC(=O)c1c(C(=O)OC)c(-c2cccc(F)c2)n2c1CS(=O)(=O)C2`, with -16%.

Regarding `C/C(=N/NC(=O)c1ccccn1)c1ccc(O)cc1`, the “hERG current change (%, negative = inhibition) at 10uM” value is 11.3%. With `CCC(=NCc1ccco1)c1c(O)n(-c2ccccc2C)c(=O)[nH]c1=O`, the “hERG current change (%, negative = inhibition) at 10uM” value was determined as 10.6%. Regarding `CCN(CC)CCNC(=O)c1cn(CCOC)c(=O)c2c1c1ccccc1n2C`, the “hERG current change (%, negative = inhibition) at 10uM” value came out at 0.745%. Then `O=C(COc1ccc2ccccc2c1Br)N1CCCCC1`, with -0.386%; and `C=CCNC(=O)c1c(Br)cnn1-c1ccc(C)cc1`, with 17.6%. `O=C(C1CCC1)N1CCC(O)(c2cccc(F)c2)CC1`: the “hERG current change (%, negative = inhibition) at 10uM” value stood at 14.6%. Then `CC(C)(C)C1=C(C#N)C(c2ccc3c(c2)OCO3)C(C#N)=C(N)O1` (centres unmarked), with -18.2%; and `Cc1cccc(C(=O)OCC(=O)N(CC(C)C)c2c(N)n(Cc3ccccc3)c(=O)[nH]c2=O)c1O`, with 10.9%; and `COc1ccc(/C(O)=C/C(=O)C(=O)Nc2c(C)n(C)n(-c3ccccc3)c2=O)cc1`, with 8.01%. The result for `CCc1noc(C)c1C(=O)Nc1cccc(S(=O)(=O)N2CCCCCC2)c1` reads -56%; that for `N/C(=N\OS(=O)(=O)c1ccc2ccccc2c1)c1cccnc1`, 5.24%. The result for `CC(=O)N1CC=CC1(CC(C)C)C(=O)NCCN1CCOCC1` (centres unmarked) reads 23.6%. For the compound `CCN(CC(=O)NC1CCS(=O)(=O)C1)S(=O)(=O)c1ccccc1Cl` (centres unmarked), the “hERG current change (%, negative = inhibition) at 10uM” value is recorded as -0.0308%. Turning to `N/C(=N\OC(=O)Cc1ccccc1)c1ccccc1Cl`, the “hERG current change (%, negative = inhibition) at 10uM” value came to 10.8%.

As to `Nc1ncnc2nc(SCC(=O)Nc3cccc(C(F)(F)F)c3)[nH]c12`, the “hERG current change (%, negative = inhibition) at 10uM” value is listed as -8.98%. As for `CCOc1ccc(C(=O)NC(=S)Nc2ccc(N3CCOCC3)c(Cl)c2)cc1[N+](=O)[O-]`, the “hERG current change (%, negative = inhibition) at 10uM” value was 2.8%. Then `Cc1cccc(Cc2c(C)nc3c(C(=O)N4CCN(Cc5ccc6c(c5)OCO6)CC4)cnn3c2C)c1`, with -27.4%; and `Cc1nc(-c2cccc(NC(=O)COc3ccc(Cl)cc3)c2)cs1`, with -6.02%; and `FC(F)Oc1ccc(/C=N/N2CCCCC2)c(OC(F)F)c1`, with -20.6%. The result for `NCCCC[C@@H](C(=O)N1CCNCC1)n1cc(CN)nn1` reads 7.95%; that for `COc1ccc(C2(C#N)CC[N+](C)(C)CC2)cc1.[Br-]`, 1.7%. The result for `Cc1ccc(C(=O)C(OC(=O)CNS(=O)(=O)c2ccccc2)c2ccccc2)cc1` (centres unmarked) reads 3.06%. As to `O=C(COC(=O)c1nc(Cl)ccc1Cl)NC1CCS(=O)(=O)C1` (centres unmarked), the “hERG current change (%, negative = inhibition) at 10uM” value is recorded as 15.6%.

On to `CC(C)(C)CC(C)(C)NCC(O)COc1ccc2c(c1)CCC2.Cl` (centres unmarked), for which the “hERG current change (%, negative = inhibition) at 10uM” value is reported as -20.2%. Then `CCOC(=O)Cn1c(CN2CCN(c3cccc(Cl)c3)CC2)nc2c1c(=O)[nH]c(=O)n2C`, with -31.9%.
